Data reported in the supplement of paper PMC10670038.
Structures can show the parent of a compound that is named as a salt. ± gives the standard deviation of the averaged measurements. In all, about 2,000 compounds were measured (“relative cell viability vs DMSO, compound alone”: median about 1.1, lowest 2% from about 0.29 on). This is one part of the list.

Tested on: TE10
Test: relative cell viability vs DMSO, compound alone (fraction); TE10 is an esophageal squamous carcinoma line; higher = less cytotoxic
Settings: 2 µM; 48 h
Procedure: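 TE10 ESCC cells (1,000/well, 384-well plates) were treated with Selleck bioactive library compounds at 2 uM alone for 48 h. Viability was read by CellTiter-Glo and expressed relative to DMSO wells. Two technical replicates (A, B).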

SMILES | relative cell viability
CS(=O)(=O)CCNCc1ccc(-c2ccc3ncnc(Nc4ccc(OCc5cccc(F)c5)c(Cl)c4)c3c2)o1 [Lapatinib] | 1.08 ± 0.019
CS(=O)(=O)CCNCc1ccc(-c2ccc3ncnc(Nc4ccc(OCc5cccc(F)c5)c(Cl)c4)c3c2)o1 | 0.998 ± 0.17
C=CC(=O)Nc1cccc(Nc2nc(Nc3ccc(N4CCN(C(C)=O)CC4)cc3OC)ncc2C(F)(F)F)c1 | 0.986 ± 0.092
Nc1c(Br)cc(Br)cc1CN[C@H]1CC[C@H](O)CC1 [Ambroxol HCl] | 1.05 ± 0.029
Cn1ccnc1S [Methimazole] | 1.075 ± 0.0027
CC(C)(Sc1cc(C(C)(C)C)c(O)c(C(C)(C)C)c1)Sc1cc(C(C)(C)C)c(O)c(C(C)(C)C)c1 [Probucol] | 1.02 ± 0.0073
CN1CCC(=C2c3ccccc3CC(=O)c3sccc32)CC1 [Ketotifen Fumarate] | 1.07 ± 0.012
COc1ccccc1N1CCN(CC(O)COc2cccc3ccccc23)CC1 (stereo not given) [Naftopidil] | 0.9388 ± 0.0088
COc1ccccc1N1CCN(CC(O)COc2cccc3ccccc23)CC1 (stereo not given) [Naftopidil DiHCl] | 1.13 ± 0.12
O=C(O)CC[C@H]1CC[C@@](c2cc(F)ccc2F)(S(=O)(=O)c2ccc(Cl)cc2)CC1 | 0.965 ± 0.023
N#CC(c1ccc(Cl)cc1)c1c(Cl)cc(-n2ncc(=O)[nH]c2=O)cc1Cl (stereo not given) [Diclazuril] | 0.869 ± 0.039
O=c1ccc2ccc(O)c(O)c2o1 [Daphnetin] | 1.1 ± 0.02
COc1cc(OC)c(C(=O)CCCN2CCCC2)c(OC)c1 [Buflomedil HCl] | 1.124 ± 0.0052
COc1ccc(CCNCc2ccc(OCc3ccc(Cl)nc3)c(OC)c2)cc1OC | 1.083 ± 0.0095
CC(C)(C)C(=O)OCOP(=O)(COCCn1cnc2c(N)ncnc21)OCOC(=O)C(C)(C)C [Adefovir Dipivoxil] | 0.795 ± 0.078
CNCC[C@H](Oc1cccc2ccccc12)c1cccs1 [Duloxetine HCl] | 1.11 ± 0.054
C[C@@H](Oc1cc(-n2cnc3ccc(CN4CCN(C)CC4)cc32)sc1C(N)=O)c1ccccc1C(F)(F)F | 0.877 ± 0.049
COc1ccccc1-c1cc(Nc2cccc(CS(N)(=O)=O)c2)ncn1 | 1.04 ± 0.014
CC1(COc2ccc3c(c2)ncn3-c2ccc3cccc(N4CCC(N)CC4)c3n2)COC1 | 1.1 ± 0.033
N#CC(=Cc1ccc(O)c(O)c1)C(=O)NCc1ccccc1 [AG-490 (Tyrphostin B42)] | 1.196 ± 0.001

SMILES | relative cell viability
COc1cc(Cc2cnc(N)nc2N)cc(OC)c1OC [Trimethoprim] | 1.07 ± 0.067
COc1cc2c(cc1OC)CN(CCc1ccc(NC(=O)c3cc(OC)c(OC)cc3NC(=O)c3cnc4ccccc4c3)cc1)CC2 [Tariquidar] | 1.14 ± 0.047
C=CC(=O)N1CC(=Cc2ccc([N+](=O)[O-])cc2)C(=O)C(=Cc2ccc([N+](=O)[O-])cc2)C1 | 0.0554 ± 0.0028
O=C(Nc1ccccc1)c1ccccc1O [Salicylanilide] | 1.07 ± 0.059
CC(=O)c1cc([N+](=O)[O-])c(Sc2cccc(Cl)c2Cl)s1 | 1.039 ± 0.0072
Cn1c(=O)c2[nH]cnc2n(C)c1=O [Aminophylline] | 0.839 ± 0.017
CS(=O)(=O)c1ccc(C2=C(c3ccccc3)C(=O)OC2)cc1 [Rofecoxib] | 1.15 ± 0.038
Cc1[nH]c(=O)c(C#N)cc1-c1ccncc1 [Milrinone] | 1.11 ± 0.034
CC(C)[C@H](CO)Nc1nc(Nc2cccc(Cl)c2)c2ncn(C(C)C)c2n1 [Purvalanol A] | 1.01 ± 0.056
CN(C)CCC=C1c2ccccc2CCc2ccccc21 [Amitriptyline HCl] | 1.022 ± 0.0078
Cc1ccnc2c1NC(=O)c1cccnc1N2C1CC1 [Nevirapine] | 1.137 ± 0.0096
N=C(N)N [Guanidine HCl] | 1.12 ± 0.073
Cc1c(C(N)=O)cc([N+](=O)[O-])cc1[N+](=O)[O-] [Dinitolmide] | 1.0978 ± 0.00018
CCc1nc(-c2cccc(C)c2)c(-c2ccnc(NC(=O)c3ccccc3)c2)s1 | 1.0779 ± 0.0008
Cc1cccc(C)c1NC(=O)C1CCCCN1C (stereo not given) [Mepivacaine HCl] | 1.15 ± 0.032
Cc1ncc([N+](=O)[O-])n1CC(O)CCl (stereo not given) [Ornidazole] | 0.985 ± 0.1
CN1C(C(=O)Nc2ccccn2)=C(O)c2sccc2S1(=O)=O [Tenoxicam] | 0.957 ± 0.016
N#Cc1ccc2[nH]cc(CCCCN3CCN(c4ccc5oc(C(N)=O)cc5c4)CC3)c2c1 [Vilazodone HCl] | 1.23 ± 0.047
COc1cc(C(=O)NS(=O)(=O)c2ccccc2C)ccc1Cc1cn(C)c2ccc(NC(=O)OC3CCCC3)cc12 [Zafirlukast] | 1.03 ± 0.033
CN[C@H]1CN(c2ccc3c(=O)c(C(=O)O)cn(-c4nccs4)c3n2)C[C@@H]1OC [Voreloxin (SNS-595)] | 0.88 ± 0.017
